# Data as given in the supplement of paper PMC8728848.
# The list shows a part of the results.
# B1: CC1G-10077 (Coprinopsis cinerea), A8NDT7 (protein)
# chain: MALNEGVYWIRNSRFTNKVLDLDAANVAKGTSILDFNEHGTFNENHNQLWIVERFQSRDTYLIRSVHSNLVLDLSQGLSANGTPILCWTQHGGTNQQWRIEWVKDDNKTPLYRIVSVATGTAISHNEDDSSAYTVAWSVDDGPKQLWSFDPFVTPLLYRLRVKSTSRVLDLAAASADNGTLALAWEQHTAITKRNQLWWLPYRSGAEEYTIQCLETSTVADLSGGNSGNGTPIYGWQSHGGRNQQWKFEPTSDSGDYYHIKNVEGGSVMDAYMNDSQKRVGGWSNNGGDNQKWLLDPLPSPGPGWVLIQNGGTGKFLCSTPSGDIGTADGPETVYDYSVQWRFIQREYTGVYHVVNRATGAYLRQIGTSMPSIGLAEENDDELKDWWMLETYDNSEIGLASIISRWTGNVLDHYGGVSVQALDNNTENSYRSWAIIPARDWLTSFSLVNGQGGLCLAAQYAREETRLSTTANVNDFHAQWVFRKPSGSSGYTIQNKYNNHYVGGTSARWELVVCCNKYFGIRNTSTQKYLAIEDGQVTFQDQDMTDRKQCWELCSGRATDTSGNDYDLIYMDDDLLEVMIPWVGDKQGDLKHYIEKRATKKPPKDKGGWQLPAAGLIKKPKFNDIRQLLQELIEQWEWDVVNEEREQIQTLVSIDEAEARRLLGRRPHPDIVAAYQRSRSSTLFRIDRQGYFNIAGDRYVNIQGQYGDDSYFHIALPVGVRFGREQIRRFLRDSLDRSTSVTITPTTCKPPSGGPDYNRDPDSDGDNSWIKWTIAVVGTSAIKHSEL
# Experiments:
# Test in all cases: glycan array binding signal (z-score within array); higher = stronger binding
# Conditions in all cases: glycan notation: IUPAC condensed, linker removed
# [1] = biological target: Fuc(a1-2)Gal(b1-4)GlcNAc(b1-3)Gal(b1-4)GlcNAc(b1-2)Man(a1-3)[Fuc(a1-2)Gal(b1-4)GlcNAc(b1-3)Gal(b1-4)GlcNAc(b1-2)Man(a1-6)]Man(b1-4)GlcNAc(b1-4)GlcNAc
# How it was run: (§1)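 Glycan array data were curated from 3228 arrays in the Consortium for Functional Glycomics database and kept only where the protein sequence was available. Glycan names were converted to IUPAC-condensed notation, and columns mapping to the same glycan were averaged. The binding signal is a within-array Z-score, averaged across arrays of the same protein sequence at different concentrations or buffers and across linkers. Negative Z-scores can be read as non-binding.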
# [2] = biological target: Fuc(a1-2)Gal(b1-4)GlcNAc(b1-3)Gal(b1-4)GlcNAc(b1-3)Gal(b1-4)GlcNAc
# How it was run: as §1
# [3] = biological target: Fuc(a1-2)Gal(b1-4)GlcNAc(b1-3)GalNAc
# How it was run: as §1
# [4] = biological target: Fuc(a1-2)Gal(b1-4)GlcNAc(b1-3)[Fuc(a1-2)Gal(b1-4)GlcNAc(b1-6)]GalNAc
# How it was run: as §1
# [5] = biological target: Fuc(a1-2)Gal(b1-4)GlcNAc(b1-3)[Fuc(a1-3)[Gal(b1-4)]GlcNAc(b1-6)]Gal(b1-4)Glc
# How it was run: as §1
# [6] = biological target: Fuc(a1-2)Gal(b1-4)GlcNAc(b1-6)GalNAc
# How it was run: as §1
# [7] = biological target: Fuc(a1-2)Gal(b1-4)GlcNAc6S
# How it was run: as §1
# [8] = biological target: Fuc(a1-2)Gal(b1-4)[Fuc(a1-3)]GlcNAc
# How it was run: as §1
# [9] = biological target: Fuc(a1-2)Gal(b1-4)[Fuc(a1-3)]GlcNAc(b1-2)Man(a1-3)[Fuc(a1-2)Gal(b1-4)[Fuc(a1-3)]GlcNAc(b1-2)Man(a1-6)]Man(b1-4)GlcNAc(b1-4)[Fuc(a1-6)]GlcNAc
# How it was run: as §1
# [10] = biological target: Fuc(a1-2)Gal(b1-4)[Fuc(a1-3)]GlcNAc(b1-2)[Fuc(a1-2)Gal(b1-4)[Fuc(a1-3)]GlcNAc(b1-4)]Man(a1-3)[Fuc(a1-2)Gal(b1-4)[Fuc(a1-3)]GlcNAc(b1-2)Man(a1-6)]Man(b1-4)GlcNAc(b1-4)GlcNAc
# How it was run: as §1
# [11] = biological target: Fuc(a1-2)Gal(b1-4)[Fuc(a1-3)]GlcNAc(b1-3)Gal(b1-4)[Fuc(a1-3)]GlcNAc
# How it was run: as §1
# [12] = biological target: Fuc(a1-2)Gal(b1-4)[Fuc(a1-3)]GlcNAc(b1-3)Gal(b1-4)[Fuc(a1-3)]GlcNAc(b1-3)Gal(b1-4)[Fuc(a1-3)]GlcNAc
# How it was run: as §1
# [13] = biological target: Fuc(a1-2)Gal(b1-4)[Fuc(a1-3)]GlcNAc(b1-3)GalNAc
# How it was run: as §1
# [14] = biological target: Fuc(a1-2)Gal(b1-4)[Fuc(a1-3)]GlcNAc(b1-3)[Neu5Ac(a2-6)Gal(b1-4)GlcNAc(b1-6)]Gal(b1-4)Glc
# How it was run: as §1
# [15] = biological target: Fuc(a1-2)Gal3S(b1-4)GlcNAc
# How it was run: as §1
# [16] = biological target: Fuc(a1-2)Gal6S(b1-3)GlcNAc
# How it was run: as §1
# [17] = biological target: Fuc(a1-2)Gal6S(b1-3)GlcNAc6S
# How it was run: as §1
# Fuc(a1-2)Gal6S(b1-4)Glc = biological target: Fuc(a1-2)Gal6S(b1-4)Glc
# How it was run: as §1
# [18] = biological target: Fuc(a1-2)Gal6S(b1-4)Glc6S
# How it was run: as §1
# Fuc(a1-2)[Gal(a1-3)]Gal = biological target: Fuc(a1-2)[Gal(a1-3)]Gal
# How it was run: as §1
# [19] = biological target: Fuc(a1-2)[Gal(a1-3)]Gal(b1-3)GalNAc
# How it was run: as §1
# [20] = biological target: Fuc(a1-2)[Gal(a1-3)]Gal(b1-3)GalNAc(b1-3)Gal(a1-4)Gal(b1-4)Glc
# How it was run: as §1
# [21] = biological target: Fuc(a1-2)[Gal(a1-3)]Gal(b1-3)GlcNAc
# How it was run: as §1
# [22] = biological target: Fuc(a1-2)[Gal(a1-3)]Gal(b1-3)GlcNAc(b1-2)Man(a1-3)[Fuc(a1-2)[Gal(a1-3)]Gal(b1-3)GlcNAc(b1-2)Man(a1-6)]Man(b1-4)GlcNAc(b1-4)GlcNAc
# How it was run: as §1
# [23] = biological target: Fuc(a1-2)[Gal(a1-3)]Gal(b1-3)GlcNAc(b1-2)Man(a1-3)[Fuc(a1-2)[Gal(a1-3)]Gal(b1-3)GlcNAc(b1-2)Man(a1-6)]Man(b1-4)GlcNAc(b1-4)[Fuc(a1-6)]GlcNAc
# How it was run: as §1
# [24] = biological target: Fuc(a1-2)[Gal(a1-3)]Gal(b1-3)GlcNAc(b1-3)GalNAc
# How it was run: as §1
# [25] = biological target: Fuc(a1-2)[Gal(a1-3)]Gal(b1-3)GlcNAc(b1-6)GalNAc
# How it was run: as §1
# [26] = biological target: Fuc(a1-2)[Gal(a1-3)]Gal(b1-4)Glc
# How it was run: as §1
# [27] = biological target: Fuc(a1-2)[Gal(a1-3)]Gal(b1-4)GlcNAc
# How it was run: as §1
# [28] = biological target: Fuc(a1-2)[Gal(a1-3)]Gal(b1-4)GlcNAc(b1-2)Man
# How it was run: as §1
binder,measurement,setting,value
B1,glycan array binding signal (z-score),[1],1.54
same,glycan array binding signal (z-score),[2],-0.092
same,glycan array binding signal (z-score),[3],-0.496
same,glycan array binding signal (z-score),[4],0.295
same,glycan array binding signal (z-score),[5],-0.235
same,glycan array binding signal (z-score),[6],0.6
same,glycan array binding signal (z-score),[7],-0.133
same,glycan array binding signal (z-score),[8],-0.471
same,glycan array binding signal (z-score),[9],-0.404
same,glycan array binding signal (z-score),[10],-0.388
same,glycan array binding signal (z-score),[11],-0.414
same,glycan array binding signal (z-score),[12],-0.47
same,glycan array binding signal (z-score),[13],-0.438
same,glycan array binding signal (z-score),[14],-0.332
same,glycan array binding signal (z-score),[15],-0.36
same,glycan array binding signal (z-score),[16],-0.447
same,glycan array binding signal (z-score),[17],-0.434
same,glycan array binding signal (z-score),Fuc(a1-2)Gal6S(b1-4)Glc,-0.425
same,glycan array binding signal (z-score),[18],-0.475
same,glycan array binding signal (z-score),Fuc(a1-2)[Gal(a1-3)]Gal,-0.478
same,glycan array binding signal (z-score),[19],-0.402
same,glycan array binding signal (z-score),[20],-0.481
same,glycan array binding signal (z-score),[21],-0.466
same,glycan array binding signal (z-score),[22],-0.464
same,glycan array binding signal (z-score),[23],-0.476
same,glycan array binding signal (z-score),[24],-0.488
same,glycan array binding signal (z-score),[25],0.202
same,glycan array binding signal (z-score),[26],-0.408
same,glycan array binding signal (z-score),[27],-0.459
same,glycan array binding signal (z-score),[28],-0.407
